Here are results for 87 compounds from PubChem BioAssay AID463173 (ICCB-Longwood Screening Facility, Harvard Medical School, 2010).

The campaign covered roughly 52,000 compounds. About 1,700 (3.3%) were called active. Cut-off read from the data, not from the text of the source: active = survival mostly below about 52% (no sharp cut-off); inactive = mostly above about 56%. This is one part of the list.

The test system of this test is Wild type. The experiment in a line: S. aureus survival, RN4220 and DeltatarO strains – OD600, teichoic acid synthesis inhibitors, primary screen (AID 463173). To be noted: S. aureus RN4220 wild type/DeltatarO growth, OD600, 18 h, stronger effect = lower value, screened at 18.75 µg/mL (by protocol).
`CCCCN(C)S(=O)(=O)c1ccc(C(=O)Nc2sc3c(c2C(N)=O)CC(C)(C)NC3(C)C)cc1`: the survival is inactive: 68%.
To `CCN(Cc1ccccc1)C(=O)Cn1c(=O)n(-c2ccc(Cl)cc2)c(=O)c2c(C)c(C(=O)N(C)C)sc21` belongs inactive: 88%; to `Cc1c(CCC(=O)NCc2cccc(Cl)c2)c(=O)oc2c(C)c(O)ccc12`, inactive: 88%; to `Cc1ccc(CCNC(=O)CS(=O)Cc2nc(-c3ccccc3C)oc2C)cc1` (configuration not stated), inactive: 77%.
For `O=C(CSc1nc2c(oc3ccccc32)c(=O)n1Cc1ccco1)Nc1ccccc1Cl` the value was inactive: 72%; for `O=C(Cn1cnc2c(oc3ccccc32)c1=O)Nc1ccc(F)cc1F`, inactive: 113%.
Turning to `O=C(Cn1ncc2c3ccccc3n(Cc3cccc(Cl)c3)c2c1=O)NCc1cccs1`, the survival is inactive: 91%.
With `O=C(Nc1nc2ccccc2s1)c1ccc(S(=O)(=O)N2CCCC2)cc1`, the survival is inactive: 80%.
For `CC1CCCN(S(=O)(=O)c2ccc(S(=O)(=O)N3CCN(C=O)CC3)cc2)C1` (configuration not stated) the value was inactive: 102%; for `CCOc1ccc(C2C(=O)N(C3CCCCCC3)CC(=O)N2CCc2ccc(OC)c(OC)c2)cc1OC` (configuration not stated), inactive: 72%.
As to `O=S(=O)(c1ccc2nc(NCc3ccccc3Cl)ccc2c1)N1CCCCC1`, the survival is inactive: 71%.
For `COc1ccc(Nc2cc(C)c3ccccc3n2)cc1` the value was inactive: 116%; for `COc1cc(Cl)c(NS(=O)(=O)c2ccc(-c3cnc(C4CC4)o3)cc2)c(OC)c1`, inactive: 91%.
For `CC(CNC(=O)c1ccc(CSc2nc3ccncc3n2Cc2ccccc2)cc1)c1ccccc1` (configuration not stated) the value was inactive: 94%; for `CN(C)S(=O)(=O)c1ccc(S(=O)(=O)N2CCC(c3nc4c(nnn4Cc4cccc(F)c4)c(=O)[nH]3)CC2)cc1`, inactive: 113%; for `COc1ccc(CNC(=O)CSc2nc(-c3ccc(OC)c(OC)c3)cc(C(F)(F)F)n2)cc1`, inactive: 83%.
To `CCOC(=O)c1ccc(NC(=O)NCCOCCn2c(=O)oc3ccccc32)cc1` belongs inactive: 80%; to `CCOC(=O)c1cc(S(=O)(=O)N2CCN(c3ccc(C(C)=O)cc3)CC2)[nH]n1`, inactive: 134%; to `CCS(=O)(=O)c1nc(S(=O)(=O)c2ccc(C)cc2)c(NCCCOC)s1`, inactive: 74%.
As to `Nc1cc(=O)nc(SCC(=O)Nc2ccc(F)cc2)n1CCc1ccccc1`, the survival is inactive: 79%.
To `O=C(O)COCC(=O)Nc1ccc2c(c1)CCC2` belongs inactive: 117%.
For `COc1ccc(N2CC(NC(=O)c3ccco3)CC2=O)cc1` (configuration not stated) the value was inactive: 49%; for `Cc1cc2oc3c(c(=O)c2cc1C)C1(C(=O)N(C)c2ccccc21)N(CCO)C3=O` (configuration not stated), inactive: 79%.
For `CCn1c(CNC(=O)c2ccc(OC)cc2)nnc1SCC(=O)Nc1ccc(C)cc1` the value was inactive: 125%.
As to `CC(=O)c1ccc(NC(=O)c2ccc(-c3ccc(Cl)cc3)o2)cc1`, the survival was inactive: 141%.
For `CCN(CC)CCNC(=O)c1ccc2nc(CCc3ccccc3)oc2c1` the value was inactive: 87%.
For `O=C(Nc1ccccc1Br)C(Cc1ccccc1)NS(=O)(=O)c1cccc2nsnc12` (configuration not stated) the value was inactive: 82%; for `COc1ccccc1NC(=O)C1CCN(C(=O)c2sc3nc[nH]c(=O)c3c2C)CC1`, inactive: 89%.
For `COc1ccc(CNC(=O)Cn2ncc3c([nH]c4ccccc43)c2=O)cc1` the value was inactive: 63%.
In the case of `Cc1cccc(CCNC(=O)CCc2c(C)nc3c4c(C)cc(C)nc4nn3c2C)c1`, the survival was inactive: 81%.
To `O=C1C(=O)N(CC2CCCO2)C(c2ccccc2)/C1=C(/O)c1ccccc1` (configuration not stated) belongs inactive: 101%.
For `CCc1cccc(C)c1NC(=O)Cn1c(=O)cc(C)c2c(C)nn(-c3cccc(F)c3)c21` the value was inactive: 94%.
For `Cc1nn(-c2ccc(N3CCCC3)nn2)c(C)c1CCC(=O)Nc1ccc(F)cc1F` the value was inactive: 75%; for `CN1CCN(CCC(O)COc2ccc(OCC(O)CCN3CCN(C)CC3)cc2)CC1` (configuration not stated), inactive: 116%; for `Cc1c(C(=O)Nc2ccccc2F)sc2ncnc(N(C)C3CCCCC3)c12`, inactive: 32%.
With `COc1ccccc1N1CCN(c2cc(C)nc3nc(-c4ccc(C)cc4)nn23)CC1`, the survival was inactive: 77%.
Consider `O=C(NCc1ccc(F)cc1)c1ccc(Nc2nc3ccccc3n3nnnc23)cc1`, for which the survival is inactive: 87%.
For `Cn1c(=O)n(-c2ccc3c(c2)OCO3)c2nc(-c3ccccc3)nc(C(N)=O)c21` the value was inactive: 83%; for `COc1ccc(NC(=O)c2sc3nc[nH]c(=O)c3c2C)cc1Cl`, inactive: 71%; for `COc1ccc(C)cc1NC(=O)c1ccc2c(SCC(=O)O)c3c(nc2c1)CCCC3`, inactive: 73%.
As for `CCOc1ccc(NC(=O)C2CC(=O)N(c3ccc(C(C)C)cc3)C2)cc1` (configuration not stated), the survival was inactive: 73%.
In the case of `COc1cccc2c1cc1c(=O)n(CC(=O)N3CCN(c4cccc(C)c4)C(C)C3)nc(C)n12` (configuration not stated), the survival is inactive: 131%.
To `Cc1cc(C)cc(NC(=O)CSc2cc(C)[nH]c(=O)n2)c1` belongs inactive: 72%; to `CCCC1=Nc2cc(C(=O)NC3CCCC3)ccc2Sc2ccc(C)cc21`, inactive: 48%; to `CCOC(=O)CC(NC(=O)Cn1nnc(-c2ccc(C(F)(F)F)cc2)n1)c1ccc(OC)cc1` (configuration not stated), inactive: 110%.
On to `COc1cc(CN(C(=O)COc2ccc(C)cc2)c2ccccn2)cc(OC)c1OC`, for which the survival was inactive: 82%.
To `CC(=O)Nc1ccc(-c2cc(C(=O)O)c3c(-c4ccccc4)[nH]nc3n2)cc1` belongs inactive: 63%; to `COc1ccc(C(=O)N2CCN(Cc3cc(=O)n4nc(-c5ccccc5C)sc4n3)CC2)cc1OC`, inactive: 124%; to `CCCCNC(=O)c1nn(-c2ccc(CC)cc2)nc1CO`, inactive: 84%.
To `Cc1cccc(NC(=O)C2CCN(S(=O)(=O)c3ccc(F)cc3)CC2)c1C` belongs inactive: 73%; to `CC(NC(=O)c1ccccc1NC(=O)c1ccccc1)C(=O)NCc1ccco1` (configuration not stated), inactive: 104%; to `CCc1ccccc1NC(=O)Cn1nnc(C(=O)NCc2ccccc2Cl)c1N`, active: -3%.
To `CCCn1c(=O)sc2cc(NC(=O)COc3ccc(Cl)cc3)ccc21` belongs inactive: 75%; to `CC1CCC(NC(=O)c2ccc3c(c2)N(Cc2cccc(Cl)c2)C(=O)c2ccccc2S3(=O)=O)CC1` (configuration not stated), inactive: 88%; to `CN(C)S(=O)(=O)c1ccc2c(c1)C(=C(C#N)C#N)c1cc(S(=O)(=O)N(C)C)ccc1-2`, inactive: 108%.
Turning to `CCOC(=O)c1ccc(NS(=O)(=O)c2ccc3c(c2)n(C)c(=O)n3C)cc1`, the survival is inactive: 71%.
Turning to `CCN(CC)CC(C)CNC(=O)c1cc(-c2ccc(Br)s2)nc2ccccc12` (configuration not stated), the survival was inactive: 49%.
`COc1cccc(CN(C(=O)c2oc3cc(C)ccc3c2C)C2CCS(=O)(=O)C2)c1` (configuration not stated): the survival was inactive: 79%.
In the case of `CCN(CC)CCCNC(=O)CN1C(=O)CCn2nc(-c3cn(C)c4ccccc34)cc21`, the survival is inactive: 72%.
For `COc1ccc(-c2nc3c4ccccc4n(CC(=O)N4CCN(c5ccccc5OC)CC4)c(=O)n3n2)cc1` the value was inactive: 85%; for `CCOC(=O)C1CCN(C(=O)c2ccccc2N(C)S(C)(=O)=O)CC1`, inactive: 108%.
To `COc1cccc(-n2c(=O)c3c4c(sc3n(Cc3ccc(C)cc3)c2=O)CCCC4)c1` belongs inactive: 86%.
For `Cc1ccc2nc(-c3ccccc3F)c(Nc3ccc(Cl)cc3)n2c1` the value was active: 11%; for `COc1ccc(-c2nc(CSCC(=O)N3CCN(c4cccc(C)c4C)CC3)c(C)o2)cc1OC`, inactive: 22%.
Take `COc1ccc(CCNC(=O)c2ccc3c(c2)c(C)c(C)n3Cc2ccc(F)cc2)c(OC)c1OC`: the survival is inactive: 73%.
For `O=S(=O)(NCc1ccc(F)cc1)c1ccc(-c2cnc(C3CC3)o2)cc1` the value was inactive: 80%; for `Cc1nnc(NC(=O)CSCc2cc(=O)c3cc(Cl)ccc3[nH]2)s1`, inactive: 72%; for `Cc1c(C(=O)N2CCCC2)oc2c1-c1nn(CC(=O)NCCCOC(C)C)cc1CC2`, inactive: 93%.
To `COc1cccc(C(=O)Nc2ccccc2C(=O)OCc2cc(=O)n3nc(C4CC4)sc3n2)c1` belongs inactive: 65%; to `O=C(O)CC(C(=O)O)c1cn(Cc2ccccc2)c2ccccc12` (configuration not stated), inactive: 105%.
For `Cc1ccc(C(=O)c2cn(CC(=O)NC3CCCCC3)c3nc(C)ccc3c2=O)cc1` the value was inactive: 92%; for `COc1cc(-c2nc(Cn3nnc(C(=O)Nc4ccccc4)c3C)c(C)o2)cc(OC)c1OC`, inactive: 54%; for `COc1ccccc1-n1ncc2c(=O)[nH]c(SCC(=O)Nc3ccc(Cl)cc3)nc21`, inactive: 66%.
Regarding `Cc1ccc(CNC(=O)c2cccn2-c2nnc(N3CCCCC3)s2)cc1`, the survival was inactive: 124%.
For `Cc1c(C)c2c(cc(C)c3c(-c4ccccc4)coc32)oc1=O` the value was inactive: 82%.
In the case of `O=C(NC1CC(=O)N(c2cccc(F)c2)C1)C1CCCC1` (configuration not stated), the survival is inactive: 66%.
For `CN(C)CCN(Cc1ccccc1)S(=O)(=O)c1ccc2[nH]c(=O)ccc2c1` the value was inactive: 76%; for `O=C(c1cccn1-c1nnc(N2CCCC2)s1)N1CCN(c2ccccc2)CC1`, inactive: 19%.
To `O=C(Nc1cc2c(cc1C(=O)c1ccccc1)OCCO2)c1ccc(Br)cc1` belongs inactive: 86%; to `Cc1ccccc1-c1nc(SCC(=O)NCc2ccco2)c2c(=O)n(C)c(=O)n(C)c2n1`, inactive: 78%.
To `COc1ccc2oc(=O)c(-c3csc(-c4ccc(Br)cc4)n3)cc2c1` belongs inactive: 80%; to `COc1cccc(-n2cc(C(=O)NCCc3ccc(C)cc3)c3ccccc3c2=O)c1`, inactive: 82%.
`COc1ccc(-c2csc3nc(-c4ccccc4C)oc(=O)c23)cc1OC`: the survival was inactive: 76%.
For `Cc1ccc(NC(=O)C2CCN(S(=O)(=O)c3c(C)noc3C)CC2)c(C)c1`, the survival is inactive: 94%.
To `O=C(/C=C\c1ccc2c(c1)OCO2)NC1CC(=O)N(c2ccc(Cl)cc2)C1` (configuration not stated) belongs inactive: 77%.
To `COc1ccc(C2(Nc3cccc(C(=O)O)c3C)C(=O)c3ccccc3C2=O)cc1` belongs inactive: 74%; to `FC(c1nc2ccccc2[nH]1)C(F)(F)F` (configuration not stated), inactive: 111%.
